Measurements reported in paper PMC9911399, “Two distinct binding modes provide the RNA-binding protein RbFox with extraordinary sequence specificity”.
Residue numbers refer to the chain shown, from its start. The list shows a part of the results.

B1: UUUUUCG (DNA:RNA)
RNA: GGGAGACCGGAAUUCAGAUUGUCCUUUUUCGUUAAAUCCCGUCGUAGCCACCA
DNA 1: CAATCTGAATTCCGGTCTCCC
DNA 2: TGGTGGCTACGACGGGATT
B2: CGUUUGU (DNA:RNA)
RNA: B1 RNA with U25C, U26G, C30G, G31U
DNA 1: CAATCTGAATTCCGGTCTCCC
DNA 2: TGGTGGCTACGACGGGATT
B3: CGUGAGA (DNA:RNA)
RNA: B1 RNA with U25C, U26G, U28G, U29A, C30G, G31A
DNA 1: CAATCTGAATTCCGGTCTCCC
DNA 2: TGGTGGCTACGACGGGATT
B4: CCUCCCA (DNA:RNA)
RNA: B1 RNA with U25C, U26C, U28C, U29C, G31A
DNA 1: CAATCTGAATTCCGGTCTCCC
DNA 2: TGGTGGCTACGACGGGATT
B5: CAUCCCA (DNA:RNA)
RNA: B1 RNA with U25C, U26A, U28C, U29C, G31A
DNA 1: CAATCTGAATTCCGGTCTCCC
DNA 2: TGGTGGCTACGACGGGATT
B6: UACGAUU (DNA:RNA)
RNA: B1 RNA with U26A, U27C, U28G, U29A, C30U, G31U
DNA 1: CAATCTGAATTCCGGTCTCCC
DNA 2: TGGTGGCTACGACGGGATT
B7: AAAGGAC (DNA:RNA)
RNA: GGGAGACCGGAAUUCAGAUUGUCCAAAGGACUUAAAUCCCGUCGUAGCCACCA
DNA 1: CAATCTGAATTCCGGTCTCCC
DNA 2: TGGTGGCTACGACGGGATT
B8: UUAAAUU (DNA:RNA)
RNA: B1 RNA with U27A, U28A, U29A, C30U, G31U
DNA 1: CAATCTGAATTCCGGTCTCCC
DNA 2: TGGTGGCTACGACGGGATT
B9: GAGGUUG (DNA:RNA)
RNA: B7 RNA with A25G, A27G, G29U, A30U, C31G
DNA 1: CAATCTGAATTCCGGTCTCCC
DNA 2: TGGTGGCTACGACGGGATT

biological target: T1, RBFOX1 RRM RbFoxmut (Fox-RRM*) (Homo sapiens, UniProt Q9NWB1 109-208, R118D;E147R;N151S;E152T); assay: EMSA; HiTS-Eq, 1 nM pool, 10 min; buffer printed only for the single-RNA assays: 10 mM Tris pH 7.5, 150 mM NaCl, 3.4 mM EDTA, 0.001% NP-40, 30 C; conditions: tags: His6 N-terminal (pET28a); label: 5' 32P
T1 sequence: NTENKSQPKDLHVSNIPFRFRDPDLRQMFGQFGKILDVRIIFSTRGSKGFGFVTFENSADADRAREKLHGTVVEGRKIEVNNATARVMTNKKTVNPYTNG
Summary of the method: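 Purified RbFox RRM, wild type or mutant, was incubated for 10 min in 50 µL with 1 nM of a 5′-radiolabelled RNA pool carrying 7 randomized nucleotides, whose flanks were annealed to DNA oligonucleotides, over a series of increasing protein concentrations. Unbound RNA was resolved on 8% native PAGE, cut out, reverse-transcribed, barcoded by PCR and sequenced on an Illumina HiSeq 2500. Relative association constants were derived from changes in read counts for each RNA species versus the control reaction and normalised to the cognate motif.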

Binder | binding signal
B1 | 0.0908 KA relative to UGCAUGU
B2 | 0.3 KA relative to UGCAUGU
B3 | 0.124 KA relative to UGCAUGU
B4 | 0.0646 KA relative to UGCAUGU
B5 | 0.0876 KA relative to UGCAUGU
B6 | 0.0913 KA relative to UGCAUGU
B7 | 0.0621 KA relative to UGCAUGU
B8 | 0.0763 KA relative to UGCAUGU
B9 | 0.552 KA relative to UGCAUGU
